Results are given in words; binding and its absence hold for the method and conditions named. In cells and extracts the contact can be indirect. Some results given as binding are weak or reduced against the parent protein; the word gives no strength.

Amino acid sequences for entries named in this document (tags omitted). A change or cut given only in a name is not applied to a line headed by its entry.
UniProt Q14674: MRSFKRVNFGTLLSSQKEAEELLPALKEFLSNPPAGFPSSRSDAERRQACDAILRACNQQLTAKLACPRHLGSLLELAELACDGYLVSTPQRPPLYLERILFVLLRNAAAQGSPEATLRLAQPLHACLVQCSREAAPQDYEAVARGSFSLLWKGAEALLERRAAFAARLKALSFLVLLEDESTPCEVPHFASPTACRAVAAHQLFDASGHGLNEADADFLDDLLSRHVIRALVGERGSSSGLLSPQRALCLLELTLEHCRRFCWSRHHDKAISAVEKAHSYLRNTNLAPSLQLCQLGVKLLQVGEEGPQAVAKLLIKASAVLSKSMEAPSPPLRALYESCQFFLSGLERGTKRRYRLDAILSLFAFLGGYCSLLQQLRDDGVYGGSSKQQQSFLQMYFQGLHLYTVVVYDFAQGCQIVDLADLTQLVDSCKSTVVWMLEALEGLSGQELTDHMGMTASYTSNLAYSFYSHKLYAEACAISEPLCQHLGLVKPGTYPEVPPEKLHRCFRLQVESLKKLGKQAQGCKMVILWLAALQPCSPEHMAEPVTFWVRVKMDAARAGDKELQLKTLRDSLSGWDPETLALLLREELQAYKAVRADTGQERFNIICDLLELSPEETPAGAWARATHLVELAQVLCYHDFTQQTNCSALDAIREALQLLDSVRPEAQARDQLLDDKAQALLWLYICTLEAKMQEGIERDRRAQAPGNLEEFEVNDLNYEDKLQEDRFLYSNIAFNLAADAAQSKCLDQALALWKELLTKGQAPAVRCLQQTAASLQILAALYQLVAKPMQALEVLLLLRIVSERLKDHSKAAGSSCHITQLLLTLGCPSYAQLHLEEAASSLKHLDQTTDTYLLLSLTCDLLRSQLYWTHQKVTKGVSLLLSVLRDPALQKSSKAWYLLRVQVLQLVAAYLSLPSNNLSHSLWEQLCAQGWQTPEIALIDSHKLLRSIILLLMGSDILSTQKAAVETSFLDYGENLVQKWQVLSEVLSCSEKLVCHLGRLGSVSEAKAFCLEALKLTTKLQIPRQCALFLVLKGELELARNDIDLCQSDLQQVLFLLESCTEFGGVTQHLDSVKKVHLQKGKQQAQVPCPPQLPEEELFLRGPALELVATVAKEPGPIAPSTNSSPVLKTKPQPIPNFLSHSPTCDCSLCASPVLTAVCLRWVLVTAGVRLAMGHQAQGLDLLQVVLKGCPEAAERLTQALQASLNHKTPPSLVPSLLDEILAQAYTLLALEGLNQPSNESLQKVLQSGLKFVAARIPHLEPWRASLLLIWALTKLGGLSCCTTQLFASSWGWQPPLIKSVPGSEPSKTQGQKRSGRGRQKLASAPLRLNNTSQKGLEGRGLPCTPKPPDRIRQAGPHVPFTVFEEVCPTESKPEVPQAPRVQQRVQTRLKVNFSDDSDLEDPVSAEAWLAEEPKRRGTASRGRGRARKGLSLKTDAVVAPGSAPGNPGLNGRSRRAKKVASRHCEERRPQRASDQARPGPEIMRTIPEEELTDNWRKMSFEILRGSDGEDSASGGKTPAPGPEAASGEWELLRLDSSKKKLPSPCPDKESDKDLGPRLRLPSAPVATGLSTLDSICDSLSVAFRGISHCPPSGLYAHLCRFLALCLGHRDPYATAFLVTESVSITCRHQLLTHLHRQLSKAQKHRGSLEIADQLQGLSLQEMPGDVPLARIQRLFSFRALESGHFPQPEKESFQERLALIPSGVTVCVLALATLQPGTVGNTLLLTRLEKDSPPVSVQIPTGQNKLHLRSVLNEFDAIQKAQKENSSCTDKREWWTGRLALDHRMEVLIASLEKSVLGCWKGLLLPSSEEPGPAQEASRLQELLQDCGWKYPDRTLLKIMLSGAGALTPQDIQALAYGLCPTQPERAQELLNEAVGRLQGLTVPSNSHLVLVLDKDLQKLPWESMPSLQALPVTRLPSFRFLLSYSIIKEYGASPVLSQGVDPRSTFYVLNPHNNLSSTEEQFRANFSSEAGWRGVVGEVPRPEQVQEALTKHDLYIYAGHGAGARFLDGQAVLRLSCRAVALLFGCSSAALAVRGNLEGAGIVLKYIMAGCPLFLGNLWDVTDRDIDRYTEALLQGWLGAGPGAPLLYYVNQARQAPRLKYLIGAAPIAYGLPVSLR
UniProt P62258: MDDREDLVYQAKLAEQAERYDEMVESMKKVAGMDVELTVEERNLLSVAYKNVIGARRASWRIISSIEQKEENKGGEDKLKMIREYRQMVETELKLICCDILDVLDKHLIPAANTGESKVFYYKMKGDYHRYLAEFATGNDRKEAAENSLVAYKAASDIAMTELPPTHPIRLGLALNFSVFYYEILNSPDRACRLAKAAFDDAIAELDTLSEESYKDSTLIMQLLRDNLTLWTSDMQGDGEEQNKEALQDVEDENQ

For experiment [1], the target named is separase [also known as separin (ESPL1)], endogenous (human (endogenous in HCT116)) (UniProt Q14674). The experiment can be described thus: co-IP; endogenous proteins, near-confluent HCT116 cells lysed in EBC buffer; antibody to 14-3-3ε, Plk1 or separase, or rabbit IgG; protein G–Sepharose; washed with NET-N; western blot.
Experiment [2] addresses polo-like kinase 1 (Plk1), endogenous (human (endogenous in HCT116)) (UniProt P53350). The experiment is described as above.
The target of experiment [3] is HA-tagged 14-3-3ε WT (UniProt P62258). The experiment can be described thus: co-IP; HCT116 cells transfected with HA-tagged 14-3-3ε constructs (with Myc-tagged Plk1 constructs where named); lysates incubated 3 h at 4°C with anti-HA antibody (12CA5), protein G–Sepharose, washed with NET-N; western blot.
For experiment [4] the target is unchanged. The experiment can be described thus: proximity ligation; Duolink PLA in fixed HCT116 cells expressing HA-tagged 14-3-3ε WT, co-transfected with GFP–Centrin2 and Myc-tagged Plk1 constructs; antibodies against the HA and Myc epitopes; puncta per cell.
Experiment [5] addresses HA-tagged 14-3-3ε D127A (UniProt P62258). The experiment can be described thus: proximity ligation; Duolink PLA in fixed HCT116 cells stably expressing GFP–Centrin2 and transfected with HA-tagged 14-3-3ε constructs; antibodies against HA and Plk1 or HA and separase; puncta per cell.
The target in experiment [6] is HA-tagged 14-3-3ε WT (UniProt P62258). The experiment is described as above.
Experiment [7] addresses HA-tagged 14-3-3ε E134A (UniProt P62258). The experiment is described as above.
Experiment [8] addresses GST–14-3-3ε D127A (UniProt P62258). Put plainly: pull-down; GST or GST fusion proteins bound to glutathione beads incubated with HCT116 lysates (untransfected or transfected with Myc-tagged constructs) in EBC lysis buffer, 4–5 h at RT or 16 h at 4°C; washed three times with NET-N; western blot; only the target purified.
The target of experiment [9] is GST–14-3-3εK50E (UniProt P62258). The description is as above.
In experiment [10] the target is GST–14-3-3ε (UniProt P62258). The experiment is described as above.
Experiment [11] addresses GST–14-3-3ε E134A (UniProt P62258). The description is as above.
For experiment [12], the target named is 14-3-3ε (endogenous) (human (endogenous in HCT116)) (UniProt P62258). The experiment can be described thus: proximity ligation; Duolink PLA in fixed HCT116 cells with antibodies against endogenous 14-3-3ε and Plk1, separase or cdc25C; puncta per cell.
For experiment [13] the target is unchanged. The experiment can be described thus: co-IP; endogenous proteins, near-confluent HCT116 cells lysed in EBC buffer; antibody to 14-3-3ε, Plk1 or separase, or rabbit IgG; protein G–Sepharose; washed with NET-N; western blot.
Experiment [14] deals with HA-tagged 14-3-3ε D127A (UniProt P62258). Put plainly: co-IP; HCT116 cells transfected with HA-tagged 14-3-3ε constructs (with Myc-tagged Plk1 constructs where named); lysates incubated 3 h at 4°C with anti-HA antibody (12CA5), protein G–Sepharose, washed with NET-N; western blot.
The target in experiment [15] is HA-tagged 14-3-3ε E134A (UniProt P62258). The experiment is described as above.

As to “14-3-3ε (endogenous) (from UniProt P62258 1-255)”, the binding result in experiment [1] and in experiment [2] was “binds” in each case.
With “Myc-tagged Plk1 S99A (from UniProt P53350 1-603) (enzyme)”, the binding result in experiment [3] and in experiment [4] was “no binding” each time.
With “Myc-tagged Plk1 S99D (from UniProt P53350 1-603) (enzyme)”, the binding entry in experiment [3] and in experiment [4] was “binds” in each case.
“Myc-tagged Plk1 S99E (from UniProt P53350 1-603) (enzyme)”: the binding result in experiment [3] and in [4] was “binds” each time.
As for “Myc-tagged Plk1 T210A (from UniProt P53350 1-603) (enzyme)”, the binding entry in experiment [3] and in experiment [4] was “binds” throughout.
Regarding “polo-like kinase 1 (Plk1), endogenous (from UniProt P53350 1-603) (enzyme)”, the binding entry is on record as “binds” in experiment [5]; “binds” in experiment [6]; “binds” in [7]; “binds” in [8]; “no binding” in experiment [9]; “binds” in experiment [10]. Also, the binding result in experiment [11], in experiment [12], in experiment [13], in [14], in [3] and in experiment [15] was “binds” in each case.
